Assay results: the supplement of paper PMC10126150
Sequences with one replicate were seen in a single cluster, so their values are uncertain.

System: ATP
Test: switch fluorescence ratio, 500 uM ATP over buffer (Cy3 cluster intensity, sum of 5 cycles each) (fold (ratio)); higher = stronger signal-on switching upon ATP binding; sequences stand for … in TCGTCGGCAGCGTCAGATGTGTATAAGAGACAGTTTTTTTTTTTTTTTTTTTTTTTTT…TC
Conditions: aptamer strand: ATP DNA aptamer (quencher-CACCTGGGGGAGTATTGCGGAGGAAGG + anchor), 100 nM annealed; ATP concentration: 500 uM; one replicate
How it was run: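 The quencher-labelled ATP aptamer, at 100 nM, was annealed to Cy3-labelled switching-strand clusters on a modified Illumina MiSeq flow-cell. The clusters were imaged in selection buffer, then after 15 min with 500 uM ATP at 22 °C, and this buffer/ATP cycle ran five times with NaOH stripping and re-annealing between runs. Per-cluster fluorescence ratios, summed target-cycle over summed buffer-cycle Cy3 intensity, were averaged per switch-domain sequence. Clusters outside 100-1000 RFU were excluded.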
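Also: ATP exposure 15 min at 22 °C before imaging.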

CACTCGTGTT was tested, and the switch fluorescence ratio was 0.989.

GTTCATGTTG was tested, and the switch fluorescence ratio was 0.986.

With CTGGCAAGGG the switch fluorescence ratio was 1.09.

In the case of ACTTATTCCC, the switch fluorescence ratio is reported as 1.38.

With AATGAAAGGA the switch fluorescence ratio was 0.989.

For CTGCAACAGC, the switch fluorescence ratio was 1.82.

GGTTTGGAGT showed a switch fluorescence ratio of 0.911.

ATGAAAGATT gave a switch fluorescence ratio of 0.995.

Sequence AGACTGAAAT has a switch fluorescence ratio of 0.989.

GGGTATTACA was tested, and the switch fluorescence ratio was 1.04.

Work on CTTCCAGGTA yielded a switch fluorescence ratio of 1.56.

Work on TACACGATCC yielded a switch fluorescence ratio of 1.03.

Sequence TCTAAACCGC has a switch fluorescence ratio of 1.03.

In the case of GAGTGCAAGT, the switch fluorescence ratio is reported as 0.998.

For CGTTAGAGTT, the switch fluorescence ratio was 1.03.

Sequence GATTCAGACG has a switch fluorescence ratio of 1.02.

TTAAAGTTCC gave a switch fluorescence ratio of 1.14.

ATGAACACGG was tested, and the switch fluorescence ratio was 1.07.

Sequence TAGCCCGGCG has a switch fluorescence ratio of 0.998.

Sequence GGTATCGATG has a switch fluorescence ratio of 0.953.

Sequence TAACAGGGCC has a switch fluorescence ratio of 1.05.

TGAGTTATA gave a switch fluorescence ratio of 1.04.

TTTCCGAGC gave a switch fluorescence ratio of 1.51.

In the case of TGTTTTGCCC, the switch fluorescence ratio is reported as 1.04.

With CATGGGAAAA the switch fluorescence ratio was 0.979.

Work on CATTGCTACG yielded a switch fluorescence ratio of 1.06.

Sequence CACTGAGCCA has a switch fluorescence ratio of 0.974.

Sequence TAAAGACCT has a switch fluorescence ratio of 1.41.

Sequence TTCATTGTA has a switch fluorescence ratio of 0.993.

GCAGGGGCGG was tested, and the switch fluorescence ratio was 1.29.

Sequence ATGGCTAGGT has a switch fluorescence ratio of 0.999.

TTTCTCGTGT was tested, and the switch fluorescence ratio was 0.97.

In the case of AGGCACCGT, the switch fluorescence ratio is reported as 1.01.

For GACGTTCGTA, the switch fluorescence ratio was 0.981.

Sequence GCTTCCGCGG has a switch fluorescence ratio of 1.37.

CGCATGATAT gave a switch fluorescence ratio of 1.35.

In the case of GGGTCAGAGC, the switch fluorescence ratio is reported as 1.04.

In the case of ACACTTTTGC, the switch fluorescence ratio is reported as 1.1.

AAACTAATGA was tested, and the switch fluorescence ratio was 1.01.

TATCTCGGAC showed a switch fluorescence ratio of 1.04.

ACTGTTTCCT gave a switch fluorescence ratio of 1.01.

With TAACGGCGGA the switch fluorescence ratio was 0.976.

CGGGCTACCA gave a switch fluorescence ratio of 1.05.

With CGAGTCTCGA the switch fluorescence ratio was 1.01.

Work on ACTTAGACTC yielded a switch fluorescence ratio of 1.08.

AGGATCGCGG gave a switch fluorescence ratio of 1.06.

With ATATAAAGCG the switch fluorescence ratio was 0.952.

AGAGGAGCTA gave a switch fluorescence ratio of 1.01.

CTAGAGGGAA gave a switch fluorescence ratio of 0.979.

For AAACGCACTT, the switch fluorescence ratio was 1.48.

With TATTCATGAA the switch fluorescence ratio was 0.97.

With TCTTGCAGGC the switch fluorescence ratio was 1.06.

CAAGGTCACC was tested, and the switch fluorescence ratio was 1.02.

TGCTGCTGCT gave a switch fluorescence ratio of 0.961.

With ATGTATTAGC the switch fluorescence ratio was 0.983.

With TAAACTGACT the switch fluorescence ratio was 1.11.

In the case of AGGCAACATG, the switch fluorescence ratio is reported as 1.01.

TAGGGATGTT showed a switch fluorescence ratio of 1.

In the case of GTCCAGTCAT, the switch fluorescence ratio is reported as 1.03.

AGTGTGACAA was tested, and the switch fluorescence ratio was 0.99.

With GCATGATGTG the switch fluorescence ratio was 0.969.

For GGTTTGCTAA, the switch fluorescence ratio was 0.982.

TCGGGGAACT gave a switch fluorescence ratio of 1.04.

GGTGGCAGTG showed a switch fluorescence ratio of 1.18.

With GAAAAAGTC the switch fluorescence ratio was 1.01.

With GAGGGCTCCC the switch fluorescence ratio was 0.983.

With GGTCTCTTGG the switch fluorescence ratio was 0.991.

AGAGCAGATG showed a switch fluorescence ratio of 0.992.

For ACTCTACATC, the switch fluorescence ratio was 1.23.

With TGAGTCACGG the switch fluorescence ratio was 1.02.

In the case of GACCTCCCAC, the switch fluorescence ratio is reported as 2.55.

In the case of AGCGCATCTC, the switch fluorescence ratio is reported as 0.98.

For AAAAACTTGA, the switch fluorescence ratio was 1.01.

Sequence GGGTAGGATC has a switch fluorescence ratio of 1.02.

AGAAATACC showed a switch fluorescence ratio of 1.11.

In the case of GATGGTATGC, the switch fluorescence ratio is reported as 0.992.

Work on TTTGGCGATC yielded a switch fluorescence ratio of 1.07.

With AGAGATCGGT the switch fluorescence ratio was 1.

With CTCGGAGGTG the switch fluorescence ratio was 1.04.

Sequence TTTCCGGTAT has a switch fluorescence ratio of 1.06.

In the case of TGGAGGCATT, the switch fluorescence ratio is reported as 1.01.

With TCCTAGTTGG the switch fluorescence ratio was 1.01.

With AGGTTATGC the switch fluorescence ratio was 1.02.

In the case of GACGGTCAGC, the switch fluorescence ratio is reported as 1.04.

GCTATGGCGC showed a switch fluorescence ratio of 1.02.
